Reference: article PMC4336329 (PLoS ONE, 2015)
Screen size: about 310,000 compounds; about 14,000 (4.5%) showed an effect of 50% or more. The effect is printed as a negative number. This is one part of the list.

The compounds below were run against human ether-à-go-go-related gene (hERG) potassium channel (human, UniProt Q12809) (assay: primary screen, population patch clamp on CHO cells stably expressing hERG).
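Also: peak tail current of the secondary pulse compared with the same well before compound.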

human ether-à-go-go-related gene (hERG) potassium channel, sequence (Q12809 whole entry, looked up): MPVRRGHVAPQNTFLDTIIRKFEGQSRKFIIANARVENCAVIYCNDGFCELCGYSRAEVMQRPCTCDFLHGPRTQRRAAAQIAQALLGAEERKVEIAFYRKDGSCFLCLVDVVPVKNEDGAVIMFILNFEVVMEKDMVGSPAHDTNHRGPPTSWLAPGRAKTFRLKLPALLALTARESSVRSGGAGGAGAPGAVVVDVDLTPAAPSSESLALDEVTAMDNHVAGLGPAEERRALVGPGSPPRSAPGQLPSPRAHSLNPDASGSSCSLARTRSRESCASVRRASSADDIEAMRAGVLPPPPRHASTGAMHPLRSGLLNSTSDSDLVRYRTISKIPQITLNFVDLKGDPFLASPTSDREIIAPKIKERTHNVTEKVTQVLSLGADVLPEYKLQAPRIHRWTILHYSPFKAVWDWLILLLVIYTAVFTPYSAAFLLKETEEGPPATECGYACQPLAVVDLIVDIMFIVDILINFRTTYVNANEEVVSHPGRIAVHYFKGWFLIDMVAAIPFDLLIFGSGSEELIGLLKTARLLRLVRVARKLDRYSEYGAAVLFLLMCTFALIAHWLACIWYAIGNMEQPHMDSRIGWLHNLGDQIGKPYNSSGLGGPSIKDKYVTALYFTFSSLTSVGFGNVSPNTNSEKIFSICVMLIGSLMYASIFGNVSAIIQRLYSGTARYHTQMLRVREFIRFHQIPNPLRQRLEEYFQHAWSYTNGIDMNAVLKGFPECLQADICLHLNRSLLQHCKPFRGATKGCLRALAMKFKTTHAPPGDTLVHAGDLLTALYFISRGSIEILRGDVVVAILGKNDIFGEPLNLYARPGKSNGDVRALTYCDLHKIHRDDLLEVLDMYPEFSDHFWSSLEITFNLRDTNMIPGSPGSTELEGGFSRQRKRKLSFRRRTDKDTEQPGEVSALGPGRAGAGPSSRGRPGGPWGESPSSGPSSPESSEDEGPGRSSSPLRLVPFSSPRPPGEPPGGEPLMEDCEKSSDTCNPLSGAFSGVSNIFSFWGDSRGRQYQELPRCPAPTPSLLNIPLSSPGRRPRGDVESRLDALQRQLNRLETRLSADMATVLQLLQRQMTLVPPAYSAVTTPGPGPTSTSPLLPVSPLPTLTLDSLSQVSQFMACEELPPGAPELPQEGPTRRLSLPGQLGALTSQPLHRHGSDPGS

Row | Compound | hERG current change (%, negative = inhibition) at 10uM
1 | CC(=O)N1C(C)c2ccccc2C(C)(C)CC12CCCCC2 (centres unmarked) | -16.2%
2 | COc1ccc(S(=O)(=O)N2CCN(CC(=O)NC3CCCC3)CC2)cc1 | 0.823%
3 | CCCCOc1ccc(C(=O)Nc2ccc3c(c2)OCO3)cc1 | 11.9%
4 | CN(C)CCCNc1ncnc2c1cnn2-c1ccccc1 | -22.8%
5 | Cc1nc(-c2ccc(F)cc2)c(CC(=O)N2CCN(S(=O)(=O)c3cccc(F)c3)CC2)s1 | 6.48%
6 | Cc1ccc(NC(=O)c2cc(NC(=O)c3ccco3)ccc2N2CCOCC2)cc1Cl | -10.3%
7 | Cc1cc(C(=O)OCC(=O)c2ccccc2)c2ccccc2n1 | 23.1%
8 | C=CCNc1ncnc2c1[nH]c1ccccc12 | 9.69%
9 | CCOC(=O)c1[nH]cnc1C(=O)O | -2.12%
10 | COC(=O)c1ccc(N=NNc2cccc(Br)c2)cc1 | -2.25%
11 | CC(C)COC(=O)C1C2C=CC3(CN(C4CCCC4)C(=O)C13)O2 (centres unmarked) | -15.4%
12 | COC(=O)c1cc(S(=O)(=O)N(C)C2CCCCC2)c[nH]1 | 4%
13 | O=C(NC(=S)Nc1nc(-c2ccc([N+](=O)[O-])cc2)cs1)c1ccco1 | 16.5%
14 | CC(=O)c1ccc(NC(=O)CN2C(=O)COc3ccc(S(=O)(=O)N4CCCC4)cc32)cc1 | -27.9%
15 | COc1ccc(NC(=O)COc2ccc(C)nc2[N+](=O)[O-])cc1S(N)(=O)=O | -3.79%
16 | CCOc1ccccc1NC(=O)c1ccc(OCC)c([N+](=O)[O-])c1 | -10.3%
17 | CNC(=O)Oc1cccc(-c2cn3cc(OC(=O)NC)ccc3n2)c1 | -7.38%
18 | O=C1CCN(C(=O)Cc2ccccc2[N+](=O)[O-])CC1 | 18.9%
19 | CN(C)CCCC1Sc2ccccc2Sc2ccccc21.O=C(O)C(=O)O (centres unmarked) | -56.1%
20 | Cc1ccc(-n2cccc2/C=C2/NC(=O)N(CC(=O)Nc3cccc(C)c3)C2=O)cc1 | 8.68%
21 | Cc1c(Cl)cccc1NC(=O)c1ccccc1-c1ccccc1C(=O)O | 17.3%
22 | CCN(CC(=O)Nc1c(F)cccc1F)C(=O)c1cc2ccccc2oc1=O | 3.1%

Row | Compound | hERG current change (%, negative = inhibition) at 10uM
23 | C=CCN1CN(S(=O)(=O)c2ccc(OC)cc2)c2nc3ccccc3nc21 | -2.92%
24 | CN(C)S(=O)(=O)c1ccc(Cl)c(C(=O)Nc2ccc(S(=O)(=O)N3CCOCC3)cc2)c1 | 0.475%
25 | O=C(CCl)NC1CCCc2ccccc21 (centres unmarked) | 5.6%
26 | O=C(O)C(=O)O.c1ccc(-c2ccccc2OCCCN2CCCCC2)cc1 | -74.6%
27 | O=C(N/N=C/c1cn(-c2ccccc2)nc1-c1cccs1)c1ccccc1F | 18.9%
28 | CCCNC(=O)c1ccc(CN2CCOCC2)cc1 | 8.4%
29 | CC1CCCCC12NC(=O)N(CC(=O)NCc1ccco1)C2=O (centres unmarked) | -3.53%
30 | Cc1onc(-c2c(Cl)cccc2Cl)c1C(=O)ONC(=O)c1ccccc1 | 9.59%
31 | CSc1n[nH]c(NC(C)=O)n1 | 10.6%
32 | S=C(Nc1ccc(Cl)cc1Cl)N1CCOCC1 | 11.1%
33 | O=C(c1ccc(F)cc1)C1CCN(C(=O)Nc2ccc(F)cc2F)CC1 | -11%
34 | O=S(=O)(Nc1ccon1)c1ccc(F)c(F)c1 | 9.95%
35 | CCN(CC(=O)NC(C)(C)C)Cc1cc(=O)n2c(-c3ccccc3)csc2n1 | 7.25%
36 | NC1=NS(=O)(=O)NC1c1cccc(Cl)c1 (centres unmarked) | 16.1%
37 | COc1ccc(CCNC(=O)CCC(=O)Nc2ccccc2[N+](=O)[O-])cc1OC | 7.49%
38 | CCCCNC(=O)O[C@H]1C[C@@H]2CCN3C(=O)CCC[C@H]([C@H]1Cc1ccccc1)[C@H]23 | -11.8%
39 | COc1cc(-c2nnc(COC(=O)c3nn(CC(C)C)c(=O)c4ccccc34)o2)cc(OC)c1OC | -24.3%
40 | CCN(CC)C(=S)Nc1c(C)n(C)n(-c2ccccc2)c1=O | 13%
41 | COc1ccc(NC(=S)N/N=C2\CC(C)(C)Oc3ccc(OC)cc32)cc1 | 5.27%
42 | Cc1sc(NC(=O)Cn2cnnn2)nc1-c1ccc(Cl)cc1 | 1.56%
43 | CCCOC(=O)c1ccc(OC(=O)c2ccco2)cc1 | 9.34%
44 | Cc1ccc(NC(=O)C2C3CCC(O3)C2C(=O)O)c(Br)c1 (centres unmarked) | 24.4%
